# Experimental data reported in the antibiotic and cytotoxicity screens of Wong et al. (2023).
# Some of the results follow.
# System: HSkMC (human skeletal muscle cells)
# Assay: cytotoxicity call (relative viability < 0.9)
# Conditions: 10 µM
row,SMILES,cytotoxicity call
1,COc1ccc(S(=O)(=O)Nc2ccc3c(c2)CC(=O)N([C@@H](C)CO)C[C@@H](C)[C@@H](CN(C)S(=O)(=O)c2ccc(OC)cc2)O3)cc1,inactive
2,CC(=O)OC[C@@H](OC(C)=O)[C@H](OC(C)=O)[C@H](OC(C)=O)[C@H](OC(C)=O)[C@@H](COC(C)=O)OC(C)=O,inactive
3,Cc1noc(C)c1NC(=O)Nc1ccc2c(c1)C(=O)N([C@@H](C)CO)C[C@H](C)[C@H](CN(C)Cc1ccc(-c3ccccc3)cc1)O2,inactive
4,CC(C)(C)OC(=O)NCCOCCOCCOc1ccc(N(C(=O)CCl)[C@@H](C(=O)NCCc2ccccc2)c2cccs2)cc1Cl,active
5,C[C@@H]1CCCCO[C@@H](CN(C)C(=O)C2CCCCC2)[C@@H](C)CN([C@@H](C)CO)C(=O)c2cc(NC(=O)Nc3ccc(C(F)(F)F)cc3)ccc2O1,inactive
6,C[C@H](CO)N1C[C@H](C)[C@@H](CN(C)Cc2ccc(Cl)c(Cl)c2)OCCCC[C@H](C)Oc2ccc(NC(=O)C3CCCCC3)cc2C1=O,inactive
7,COCC(=O)N1C[C@@H](C)[C@@H](OC)CN(C)C(=O)c2cc(NC(=O)Nc3ccccc3)ccc2OC[C@@H]1C,inactive
8,C[C@@H]1CCCCO[C@@H](CN(C)C(=O)CCCN(C)C)[C@@H](C)CN([C@H](C)CO)C(=O)c2cc(NC(=O)Nc3ccc(C(F)(F)F)cc3)ccc2O1,inactive
9,C[C@@H]1CCCCO[C@H](CN(C)C(=O)NC2CCCCC2)[C@@H](C)CN([C@H](C)CO)C(=O)c2cc(NC(=O)Nc3ccc(C(F)(F)F)cc3)ccc2O1,inactive
10,COc1ccc(NC(=O)N(C)C[C@@H]2Oc3ccc(NS(C)(=O)=O)cc3C(=O)N([C@@H](C)CO)C[C@H]2C)cc1,inactive
11,O=C(CCNCCO)c1ccccc1,inactive
12,NC(=O)c1cccc(S(N)(=O)=O)c1,inactive
13,O=C(C[C@H]1CC[C@@H]2[C@H](COC[C@H](O)CN2S(=O)(=O)c2cccc(Cl)c2)O1)N1CCOCC1,inactive
14,O=C(Nc1ccc(-c2nc3ccc(NC(=O)c4ccccc4[N+](=O)[O-])cc3[nH]2)cc1)c1ccccc1[N+](=O)[O-],inactive
15,Cl.NC12CC3CC(CC(C3)C1)C2,inactive
16,CCS(=O)(=O)Nc1ccc2c(c1)C(=O)N(C)[C@@H]1CC[C@H](CC(=O)NCCCN3CCOCC3)O[C@H]1CO2,inactive
17,C[C@H](CO)N1C[C@H](C)[C@H](CN(C)S(=O)(=O)c2ccc(Cl)cc2)Oc2ccc(NC(=O)Nc3cccc4ccccc34)cc2CC1=O,inactive
18,CCCC1CC(C(=O)NC(C(C)Cl)C2OC(SC)C(O)C(O)C2O)N(C)C1.Cl (stereo not given),inactive
19,OC[C@@H](O)[C@H]1O[C@H](c2ccccc2)OC[C@@H]1O,inactive
20,C[C@H](CO)N1C[C@H](C)[C@H](CN(C)C(=O)Nc2ccc3c(c2)OCO3)OCCCC[C@H](C)Oc2ccc(NC(=O)Nc3ccc(F)cc3)cc2C1=O,inactive

row,SMILES,cytotoxicity call
1,C[C@@H]1CN([C@H](C)CO)C(=O)c2ccccc2-c2ccccc2CO[C@H]1CN(C)C(=O)c1cc(Cl)cc(Cl)c1,inactive
2,COc1cc(OC)cc(C(=O)OCCN2CCN(CCOC(=O)c3cc(OC)cc(OC)c3)CC2)c1,inactive
3,C[C@@H]1CN([C@H](C)CO)C(=O)CCCn2cc(nn2)CO[C@H]1CN(C)C(=O)CCCN(C)C,inactive
4,Cc1ccc(S(=O)(=O)Nc2ccc3c(c2)C(=O)N(C)[C@@H]2CC[C@@H](CC(=O)NCCc4ccncc4)O[C@H]2CO3)cc1,inactive
5,Cc1ccc(S(=O)(=O)Nc2ccc3c(c2)CC(=O)N([C@H](C)CO)C[C@H](C)[C@H](CN(C)S(=O)(=O)c2c(C)noc2C)O3)cc1,inactive
6,COc1ccc(S(=O)(=O)N(C)C[C@H]2OCCCC[C@H](C)Oc3ccc(NC(=O)Nc4c(C)noc4C)cc3C(=O)N([C@@H](C)CO)C[C@H]2C)cc1,inactive
7,CCOC(=O)/C(C)=N/NC(C)=O,inactive
8,C[C@@H]1CN([C@@H](C)CO)C(=O)c2cccc(NC(=O)C3CCOCC3)c2O[C@H]1CN(C)Cc1ccc(-c2ccccc2)cc1,inactive
9,C[C@@H]1CN([C@@H](C)CO)C(=O)c2cc(C#CC3(O)CCCC3)cnc2O[C@@H]1CN(C)S(=O)(=O)c1ccccc1,inactive
10,CC(C)CSc1ncnc2scc(-c3ccccc3)c12,inactive
11,Cc1ccc(S(=O)(=O)Nc2ccc3c(c2)C(=O)N([C@H](C)CO)C[C@H](C)[C@@H](CN(C)Cc2ccncc2)OCCCC[C@@H](C)O3)cc1,inactive
12,COc1ccc(S(=O)(=O)N(C)C[C@H]2Oc3ccc(NC(=O)CCC(F)(F)F)cc3CC(=O)N([C@@H](C)CO)C[C@@H]2C)cc1,inactive
13,O=C(CN1CCOCC1)N[C@H]1CC[C@@H](CCNC(=O)C2CCC2)O[C@@H]1CO,inactive
14,C[C@@H]1CN([C@H](C)CO)C(=O)c2cc(NC(=O)Cc3ccccc3)ccc2O[C@H]1CN(C)S(=O)(=O)c1cccs1,inactive
15,C[C@H](O)C#Cc1ccc2c(c1)O[C@H](CN(C)C(=O)c1ccncc1)[C@H](C)CN([C@H](C)CO)S2(=O)=O,inactive
16,CN(C)CC#Cc1ccc([C@@H]2[C@@H](CO)N3CCCCN(C(=O)CN(C)C)C[C@@H]23)cc1,inactive
17,CCCCc1nn(-c2ccccc2C(F)(F)F)c(=O)n1Cc1ccc(-c2ccccc2S(=O)(=O)NC(=O)c2sccc2C)cc1,inactive
18,C[C@H]1CN([C@@H](C)CO)C(=O)c2cccc(NS(=O)(=O)c3ccccc3)c2O[C@H]1CN(C)S(=O)(=O)c1cccs1,inactive
19,C[C@H](CO)N1C[C@H](C)[C@@H](CN(C)S(=O)(=O)c2ccc(Cl)cc2)Oc2ccc(NS(C)(=O)=O)cc2CC1=O,inactive
20,C[C@H](CO)N1C[C@H](C)[C@H](CN(C)S(=O)(=O)c2ccc(F)cc2)OCCCC[C@H](C)Oc2ccc(NC(=O)CCCCCC(=O)Nc3ccccc3N)cc2C1=O,inactive
